Laboratory results as given in PubChem BioAssay AID686970 (National Center for Advancing Translational Sciences (NCATS), 2013).
Hit rate of the full screen: of about 360,000 compounds, about 6,000 (1.7%) were called active. The shares of active, inactive and inconclusive entries below differ from those in the screen. Calls come from the whole dose curve; as a rule, active = well fitted cell-killing curve with a large enough effect; inconclusive = small, poorly fitted or top-dose-only effect, or effect the other way; inactive = flat fitted curve, though single readings scatter. No potency is given beside an inconclusive call; the fits are too rough.

Assay: qHTS for induction of synthetic lethality in tumor cells producing 2HG: qHTS for the HT-1080-NT fibrosarcoma cell line;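 note: NT is the 2HG producing partner of a matched IDH1 knockdown line; nearly all actives have a fitted effect of over 55% in size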;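 for activity, negative = less viability: 0% = DMSO-treated cells and -100% = media-only wells without cells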
Conditions: HT-1080-NT fibrosarcoma viability, CellTiter-Glo ATP luminescence, 48 h; activity, negative = less viability: at 46.1 µM (top of the series) unless noted
Outline: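 Luminescent CellTiter-Glo readout after 48 hours of compound exposure at 37 degrees C defined viability of HT-1080-NT cells. Activity was normalized to DMSO wells and cell-free media wells; concentration-response curves were fitted and assigned curve classes.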
Potency is the fitted concentration of half-maximal effect; tags give direction and shape of the fitted curve.

Q: For `CCCN1CCc2c(sc(NC(=O)c3ccc(S(=O)(=O)N4CCN(C(=O)OCC)CC4)cc3)c2C(N)=O)C1`, which Potency is on record?
A: The Potency was active: 7.31 µM.

Q: With `Nc1nc(-c2cccnc2)nn1C(=O)COc1ccccc1` as the molecule, how does the activity, negative = less viability read?
A: The activity, negative = less viability was inconclusive: 24.8%.

Q: For `O=C(Cn1c(C(=O)OCCO)cc2ccccc21)c1ccccc1`, which Potency is on record?
A: Its Potency is “inactive”.

Q: For `CCOC(=O)C1=C(N)Oc2c(c(=O)[nH]c3ccccc23)C1c1ccccc1` (stereo unspecified), which Potency is on record?
A: The Potency was inconclusive [cytotoxic, single point].

Q: For `OC(COc1ccc(C2C=CCC2)cc1)CN1CCCCC1` (stereo unspecified), which Potency is on record?
A: The Potency was inconclusive [cytotoxic, single point].

Q: With `Cc1ccc(C(=O)N/N=C/c2ccc(-c3cccc(C(F)(F)F)c3)o2)cn1` as the molecule, how does the Potency read?
A: The Potency was inconclusive [cytotoxic, full curve].

Q: Which Potency does the source give for `COc1ccc(NS(=O)(=O)c2ccc(-n3cnnn3)cc2)cc1OC` here?
A: The Potency was inconclusive [cytotoxic, single point].

Q: Which Potency does the source give for `COc1ccc(-c2ccc([C@H]3[C@H]4C=CC[C@@H](C)[C@@H]4C(=O)N3Cc3ccccc3)c(F)c2)cc1` here?
A: The Potency was inconclusive [cytotoxic, single point].

Q: For `COc1cc(Nc2cc(C)nc3ncnn23)cc(OC)c1OC`, which activity, negative = less viability is on record?
A: The activity, negative = less viability was inconclusive: 30.5%.

Q: For `Cc1ccc(S(=O)(=O)NC(=O)C2(C)CCN2C(=O)Cc2ccc(Cl)cc2Cl)nc1` (stereo unspecified), which activity, negative = less viability is on record?
A: Its activity, negative = less viability is inconclusive: 7.48%.

Q: Which Potency does the source give for `CCc1nnc(N/N=C/c2ccccc2F)n1N` here?
A: Its Potency is inconclusive [cytotoxic, single point].

Q: For `Cc1ccc(S(=O)(=O)NCc2ccc(C(=O)N3CCN(Cc4ccccc4)CC3)cc2)cc1`, which Potency is on record?
A: The Potency was inconclusive [cytotoxic, single point].

Q: For `O=C(COC(=O)c1ccc(Br)o1)Nc1cccc(S(=O)(=O)N2CCCCC2)c1`, which Potency is on record?
A: The Potency was “inactive”.

Q: For `COc1ccc(S(=O)(=O)c2ccc(O)cc2)cc1`, which Potency is on record?
A: The Potency was “inactive”.

Q: With `COc1cc(OC)cc(-c2sc3ccc(OC)cc3c2-c2ccc(O)cc2)c1` as the molecule, how does the Potency read?
A: Its Potency is inconclusive [cytotoxic, single point].

Q: For `Nc1c(C(=O)Nc2ccc(F)cc2)sc(=S)n1-c1ccccc1F`, which Potency is on record?
A: Its Potency is inconclusive [cytotoxic, single point].

Q: For `CCN1C=C(Cc2ccc(F)cc2)C2=C(C1)C(c1ccc(F)cc1)C(C#N)=C(N)O2` (stereo unspecified), which Potency is on record?
A: Its Potency is inconclusive [cytotoxic, single point].

Q: With `Cc1c(/C=N/NC(=O)c2ccc(O)cc2)c2ccccn2c1C(=O)c1ccc(F)cc1` as the molecule, how does the Potency read?
A: Its Potency is inconclusive [cytotoxic, single point].

Q: Which Potency does the source give for `CC(O)(c1ccc(F)c(F)c1)c1nc(-c2cccc(C(F)(F)F)c2)cs1` (stereo unspecified) here?
A: The Potency was inconclusive [cytotoxic, single point].

Q: For `Cc1cc(Br)ccc1OCC(=O)NC1CCCC1`, which Potency is on record?
A: The Potency was inconclusive [cytotoxic, single point].

Q: Which Potency does the source give for `Cc1cccc(CN2C3=NCCCN3c3ccccc32)c1` here?
A: Its Potency is inconclusive [cytotoxic, partial curve].

Q: With `CC1=NOC(=O)/C1=C\c1ccc(-c2cc(Cl)ccc2Cl)o1` as the molecule, how does the Potency read?
A: Its Potency is “inactive”.

Q: With `COc1ccc(-c2csc(N(CCCN(C)C)C(=O)c3ccccc3C)n2)cc1` as the molecule, how does the Potency read?
A: The Potency was inconclusive [cytotoxic, single point].

Q: Which Potency does the source give for `CC(C)(C)c1ccccc1OCCCCCNCCO` here?
A: The Potency was inconclusive [cytotoxic, single point].

Q: For `CS(=O)(=O)N1CCC(C(=O)Nc2ccc(Cl)c(C(F)(F)F)c2)CC1`, which Potency is on record?
A: Its Potency is inconclusive [cytotoxic, single point].

Q: With `COc1nc(NC(=O)c2ccc(F)cc2)nc(OC)c1-c1ccccc1` as the molecule, how does the Potency read?
A: The Potency was inconclusive [cytotoxic, single point].

Q: With `Oc1ccc(Br)cc1/C=N/Nc1ccccn1` as the molecule, how does the Potency read?
A: Its Potency is inconclusive [cytotoxic, partial curve].

Q: With `CCOC(=O)c1[nH]c(C)c(C(=O)Nc2ccc(Cl)cc2)c1C` as the molecule, how does the Potency read?
A: The Potency was “inactive”.

Q: For `CC(=O)N1c2ccc(Cl)cc2C2C=CCC2C1c1cccc2ccccc12` (stereo unspecified), which Potency is on record?
A: The Potency was inconclusive [cytotoxic, single point].

Q: Which Potency does the source give for `COc1cc(CNCCc2ccc(F)cc2)ccc1OCc1ccc(Cl)nc1` here?
A: The Potency was inconclusive [cytotoxic, partial curve].

Q: With `O=C(CN1C(=O)CCC1=O)c1ccc(-c2ccccc2)cc1` as the molecule, how does the Potency read?
A: The Potency was inconclusive [rising, partial curve].

Q: With `C=CCC[C@@H](Cc1ccc(F)cc1)C(=O)O[C@H](CNC(=O)[C@H](CC=C)CC(=O)N(CCO)Cc1ccccc1)c1ccccc1` as the molecule, how does the Potency read?
A: Its Potency is inconclusive [cytotoxic, single point].

Q: Which Potency does the source give for `COC(=O)c1ccc(CSc2nc3ccccc3c(=O)n2-c2cccc(OC)c2)o1` here?
A: The Potency was inconclusive [cytotoxic, single point].

Q: Which Potency does the source give for `CCC(C)c1ccc(C(C)NC(=S)NCc2ccc(F)cc2)cc1` (stereo unspecified) here?
A: The Potency was inconclusive [cytotoxic, single point].

Q: For `c1ccc(Nc2nc(Nc3ccccc3)nc(N3CCNCC3)n2)cc1`, which Potency is on record?
A: The Potency was active: 23.1 µM.

Q: With `COc1ccc(-c2csc(C(O)(c3ccccc3)C(F)(F)F)n2)cc1` (stereo unspecified) as the molecule, how does the Potency read?
A: Its Potency is inconclusive [cytotoxic, single point].

Q: For `CCC(C)c1ccccc1NC(=O)c1[nH]c(C)c(C(C)=O)c1C` (stereo unspecified), which Potency is on record?
A: The Potency was “inactive”.

Q: Which Potency does the source give for `CNCCCOc1ccc2c(c1)CCC2` here?
A: The Potency was inconclusive [cytotoxic, single point].

Q: With `Cc1ccc(NC(=O)CNC(=O)CN2C(=O)c3ccccc3C2=O)cc1` as the molecule, how does the Potency read?
A: Its Potency is inconclusive [rising, partial curve].

Q: With `CN(c1ccccc1)S(=O)(=O)c1ccc(NC(=S)NC(=O)C2CC2)cc1` as the molecule, how does the Potency read?
A: Its Potency is “inactive”.

Q: Which Potency does the source give for `O=C(/C=C\c1cn(-c2ccccc2)nc1-c1ccccc1)Nc1nccs1` here?
A: The Potency was active: 14.6 µM.

Q: Which Potency does the source give for `COc1cccc(N(C(=O)CS(=O)CC(=O)Nc2ccc(F)cc2)C(C(=O)NC2CCCCC2)c2cccs2)c1` (stereo unspecified) here?
A: Its Potency is inconclusive [cytotoxic, single point].

Q: Which Potency does the source give for `CC(C)=CCc1c2c(c3occ(-c4ccc(O)c(O)c4)c(=O)c3c1O)C=CC(C)(C)O2` here?
A: The Potency was inconclusive [cytotoxic, single point].

Q: With `CCOc1ncccc1C(=O)Nc1ccc(S(=O)(=O)N2CC(C)CC(C)C2)cc1` (stereo unspecified) as the molecule, how does the Potency read?
A: Its Potency is “inactive”.

Q: Which Potency does the source give for `Cc1ccc(N=Cc2nc(-c3ccc(C)cc3)oc2O)cc1` here?
A: The Potency was “inactive”.

Q: With `COc1ccc(Cl)cc1NC(=O)CSc1nc2ccsc2c(=O)n1CC1CCC(C(=O)O)CC1` (stereo unspecified) as the molecule, how does the Potency read?
A: Its Potency is “inactive”.

Q: For `CC1=CC(C)(C)N2C(=O)C3(N=C(N)NC(Nc4ccccc4)=N3)c3cc(C)cc1c32` (stereo unspecified), which Potency is on record?
A: Its Potency is inconclusive [cytotoxic, single point].

Q: For `Fc1ccc2nc(C(F)(F)F)cc(N3CCOCC3)c2c1`, which activity, negative = less viability is on record?
A: The activity, negative = less viability was inconclusive: 31.1%.

Q: With `c1c2c(cc3sc(N4CCCCC4)nc13)OCO2` as the molecule, how does the Potency read?
A: The Potency was inconclusive [cytotoxic, partial curve].

Q: With `O=C1CC(NN2CCCCC2)C(=O)N1c1ccccc1` (stereo unspecified) as the molecule, how does the Potency read?
A: Its Potency is “inactive”.

Q: With `N#CC1=C(N)Oc2ccc3ccccc3c2C1c1cccnc1` (stereo unspecified) as the molecule, how does the Potency read?
A: Its Potency is active: 8.2 µM.

Q: Which activity, negative = less viability does the source give for `COc1cc2nc(NC(=O)c3ccco3)sc(=O)c2cc1OC` here?
A: Its activity, negative = less viability is inconclusive: -6.79% [cytotoxic].

Q: For `CCOC(=O)c1c(CSc2ccc(C)cc2)oc2ccc(O)cc12`, which Potency is on record?
A: Its Potency is inconclusive [cytotoxic, single point].

Q: For `Cc1ccc(OCc2nnc(SCC(=O)Nc3ccc4c(c3)OCO4)n2C)cc1`, which Potency is on record?
A: The Potency was inconclusive [cytotoxic, partial curve].

Q: With `CNS(=O)(=O)c1cc(-c2nnc(N3CCOCC3)c3ccccc23)ccc1C` as the molecule, how does the Potency read?
A: The Potency was “inactive”.

Q: Which Potency does the source give for `O=C(CNC(=O)C1CCCCC1)NCCCO` here?
A: Its Potency is inconclusive [cytotoxic, single point].

Q: With `O=c1[nH]c(=O)n(Cc2ccccc2)c2nc(-c3ccco3)cc(C(F)(F)F)c12` as the molecule, how does the Potency read?
A: Its Potency is inconclusive [cytotoxic, partial curve].

Q: Which Potency does the source give for `CC(C)c1ccccc1OCC(O)CN(CC(O)COc1cccc2ccccc12)C(C)C` (stereo unspecified) here?
A: The Potency was active: 18.4 µM.

Q: Which Potency does the source give for `OCCNCc1cc(Br)ccc1OCc1ccccc1Cl` here?
A: Its Potency is inconclusive [cytotoxic, partial curve].

Q: With `COc1ccc(C(=O)/C=C/Nc2ccc(C)cn2)cc1OC` as the molecule, how does the Potency read?
A: The Potency was inconclusive [cytotoxic, single point].

Q: Which Potency does the source give for `CSc1ccc(/C=N\NC(=O)COc2ccc(Cl)cc2Br)cc1` here?
A: Its Potency is inconclusive [cytotoxic, single point].

Q: Which Potency does the source give for `O=[N+]([O-])c1ccc2nc(NN=Cc3ccc(O)cc3)sc2c1` here?
A: Its Potency is inconclusive [cytotoxic, single point].

Q: Which activity, negative = less viability does the source give for `N#Cc1ccc(C(=O)OCC(=O)N2CCCC2)cc1` here?
A: Its activity, negative = less viability is inconclusive: 31%.

Q: Which Potency does the source give for `CCCCCCCNC(=O)C1(CC2CC(c3cccc(Br)c3)=NO2)CCN(C(=O)c2ccccc2)CC1` (stereo unspecified) here?
A: Its Potency is “inactive”.

Q: For `CCN1CCN(c2cc(C(C)(C)C)nc3c(-c4ccccc4)c(C)nn23)CC1`, which Potency is on record?
A: The Potency was inconclusive [cytotoxic, single point].

Q: Which activity, negative = less viability does the source give for `CC(=O)Nc1cccc(-c2ccnc3c2CC(C(=O)NCc2cccnc2)O3)c1` (stereo unspecified) here?
A: Its activity, negative = less viability is inconclusive: -30.5% [cytotoxic].

Q: Which Potency does the source give for `CCCCN1C(=O)C2Cc3c([nH]c4ccccc34)CN2C1=S` (stereo unspecified) here?
A: Its Potency is “inactive”.

Q: With `CCCCCCN(C(=O)CCl)c1ccccc1` as the molecule, how does the Potency read?
A: Its Potency is active: 3.66 µM.

Q: Which Potency does the source give for `Cc1cc(N2CCN(C)CC2)ccc1NC(=O)c1c2c(nc3ccccc13)CCN(Cc1ccccc1)C2` here?
A: Its Potency is active: 5.8 µM.

Q: Which Potency does the source give for `Cc1c(C(=O)Nc2ccc(F)cc2)oc2ccc(S(=O)(=O)N3CCC4(CC3)OCCO4)cc12` here?
A: Its Potency is inconclusive [cytotoxic, single point].

Q: With `CCCCCC(=O)Nc1cccc(S(=O)(=O)NC2=NCCCCC2)c1` as the molecule, how does the Potency read?
A: The Potency was “inactive”.
